Laboratory results as given in the supplement of paper PMC9446081.
Hit rate of the full screen: of about 39,000 compounds, about 220 (0.56%) showed activity. This is one part of the list.

Each compound was assayed on Escherichia coli K-12 BW25113 (assay: relative growth (OD600 normalised to plate interquartile mean) (fraction); higher = less growth inhibition, active = 0.2 or less). Conditions: 50 µM; LB; incubation time: overnight (16-24 h).
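Further: static incubation at 37 °C against the wild-type strain, values averaged over two biological replicates.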

Row | SMILES | relative growth
1 | COc1ccc(NC(=O)Nc2cccc3c2O[C@H](CN(C)Cc2ccc(Cl)c(Cl)c2)[C@@H](C)CN([C@@H](C)CO)C3=O)cc1 | inactive: 0.991
2 | CCS(=O)(=O)N1C[C@]2(CCN(CC2)Cc2cccc(c2)OC)c2c([nH]c3cc(ccc23)OC)[C@@H]1CO | inactive: 0.995
3 | C[C@H](CO)N1C[C@H](C)[C@H](CN(C)C(=O)Cc2ccccn2)Oc2cc(-c3cccc(C(=O)N(C)C)c3)ccc2S1(=O)=O | inactive: 0.998
4 | C[C@@H]1CN([C@H](C)CO)S(=O)(=O)c2ccc(-c3cncnc3)cc2O[C@H]1CN(C)C(=O)NC1CCCC1 | inactive: 0.989
5 | C[C@@H]1CN([C@H](C)CO)C(=O)c2cc(NS(=O)(=O)c3ccc(F)cc3)ccc2O[C@H]1CN(C)CC1CC1 | inactive: 0.989
6 | CN(C)CC#Cc1ccc([C@H]2[C@@H](CO)N3CCCCN(C(=O)CN(C)C)C[C@H]23)cc1 | inactive: 0.973
7 | Cc1noc(C)c1S(=O)(=O)N(C)C[C@@H]1OCCCC[C@@H](C)Oc2ccc(NC(=O)Nc3ccccc3)cc2C(=O)N([C@H](C)CO)C[C@@H]1C | inactive: 1.01
8 | C[C@@H]1CN([C@H](C)CO)C(=O)c2cc(C#Cc3ccccc3F)cnc2O[C@H]1CN(C)C(=O)Cc1cccnc1 | inactive: 0.995
9 | CO/N=C(\C(=O)N[C@@H]1C(=O)N2C(C(=O)O)=C(CSC(=O)c3ccco3)CS[C@H]12)c1csc(N)n1 | active: 0.0342
10 | Nc1ccc2cc(S(=O)(=O)O)ccc2c1/N=N/c1ccc(/C=C/c2ccc(/N=N/c3c(N)ccc4cc(S(=O)(=O)O)ccc34)cc2S(=O)(=O)O)c(S(=O)(=O)O)c1 | inactive: 1.02
11 | C[C@@H]1CCCCO[C@@H](CN(C)C(=O)CCCN(C)C)[C@@H](C)CN([C@H](C)CO)C(=O)c2cc(N(C)C)ccc2O1 | inactive: 1.01
12 | O=C(C[C@H]1CC[C@H]2[C@@H](COC[C@@H](O)CN2C(=O)c2ccc3c(c2)OCO3)O1)NC1Cc2ccccc2C1 | inactive: 0.969
13 | C[C@H]1COC(=O)[C@@H](Cc2ccc(F)cc2)CCC=CC[C@@H](CC(=O)N[C@H](CO)Cc2ccccc2)C(=O)N1 | inactive: 1.01
14 | C[C@@H]1CN([C@@H](C)CO)C(=O)c2cc(NC(=O)Nc3cccc4ccccc34)ccc2O[C@@H]1CN(C)Cc1ccc(C(=O)O)cc1 | inactive: 1.01
15 | O=c1[nH]c(=O)c2ccccc2[nH]1 | inactive: 1.01
16 | C[C@@H]1CN([C@@H](C)CO)C(=O)Cc2cc(NS(=O)(=O)c3ccccc3)ccc2O[C@@H]1CN(C)S(=O)(=O)c1cccs1 | inactive: 1.03
17 | Cc1noc(C)c1S(=O)(=O)Nc1ccc2c(c1)C(=O)N([C@H](C)CO)C[C@H](C)[C@H](CN(C)Cc1ccc(Oc3ccccc3)cc1)O2 | inactive: 0.963
18 | O=C(C[C@H]1C[C@@H]2c3cc(NC(=O)c4ccc5c(c4)OCO5)ccc3O[C@@H]2[C@H](CO)O1)NCc1cccnc1 | inactive: 0.997
19 | c1ccc([C@@H]2CNCCN2)cc1 | inactive: 1.02
20 | C1=C(c2ccccc2)CC(c2ccccc2)=NN=C1c1ccccc1 | inactive: 1.02
21 | COc1cccc(S(=O)(=O)N2C[C@@H](O)COC[C@H]3O[C@H](CC(=O)N4CCN(c5ccccc5)CC4)CC[C@@H]32)c1 | inactive: 0.985

Row | SMILES | relative growth
22 | C[C@H](CO)N1C[C@H](C)[C@H](CN(C)CC2CCCCC2)Oc2ccc(NC(=O)Nc3ccc(F)cc3)cc2CC1=O | inactive: 0.985
23 | CC(C)(C)C(=O)c1cccs1 | inactive: 0.996
24 | O=C(O)CCNC(=O)c1cncc(O)c1 | inactive: 1.01
25 | CC1=NNc2nc3c(c(=O)n(C)c(=O)n3C)n2C1 | inactive: 0.983
26 | O=C(O)[C@H]1[C@H](CO)[C@H]2Cn3c(ccc(-c4cncnc4)c3=O)[C@H]2N1C(=O)C1CCC1 | inactive: 1
27 | C[C@H](CO)N1C[C@H](C)[C@@H](CN(C)C(=O)Nc2ccc(C(F)(F)F)cc2)Oc2ncc(C#C[C@@H](C)O)cc2C1=O | inactive: 1.02
28 | C[C@@H]1CN([C@@H](C)CO)C(=O)Cc2cc(NC(=O)c3ccncc3)ccc2O[C@@H]1CN(C)Cc1ccc(-c2ccccc2)cc1 | inactive: 0.971
29 | COc1cccc(NC(=O)N[C@@H]2CC[C@@H](CC(=O)N3CCN(C)CC3)O[C@@H]2CO)c1 | inactive: 1.04
30 | C[C@@H]1CN([C@H](C)CO)C(=O)Cc2cc(NS(=O)(=O)c3ccc(Cl)cc3)ccc2O[C@@H]1CN(C)C | inactive: 0.994
31 | Cc1noc(C)c1S(=O)(=O)Nc1cccc2c1O[C@H](CN(C)S(=O)(=O)c1cn(C)cn1)[C@H](C)CN([C@@H](C)CO)C2=O | inactive: 0.983
32 | CO[C@@H]1CN(C)C(=O)c2ccc(NC(=O)NC(C)C)cc2OC[C@@H](C)N(Cc2ccc(-c3ccccn3)cc2)C[C@H]1C | inactive: 1.01
33 | C[C@@H]1CCCCO[C@H](CN(C)S(=O)(=O)c2ccc(Cl)cc2)[C@H](C)CN([C@H](C)CO)C(=O)c2cc(NS(=O)(=O)c3ccc(Cl)cc3)ccc2O1 | inactive: 0.978
34 | CC(C)NC(=O)N(C)C[C@H]1Oc2ccc(NS(=O)(=O)c3cn(C)cn3)cc2CC(=O)N([C@H](C)CO)C[C@@H]1C | inactive: 1.01
35 | Nc1c2c(nc3ccccc13)CCCC2 | inactive: 0.985
36 | O=c1[nH]c(=O)n([C@H]2C[C@H](O)[C@@H](CO)O2)cc1C(F)(F)F | inactive: 0.53
37 | CO[C@H](CN(C)C(=O)Nc1ccc(C(F)(F)F)cc1)[C@@H](C)CN(Cc1ccccc1Cl)[C@H](C)CO | inactive: 0.993
38 | CCCCC(CC)COC(=O)C(C#N)=C(c1ccccc1)c1ccccc1 (stereo unspecified) | inactive: 1.03
39 | CCC(CCC(C)C1CCC2C3CC=C4CC(O)CCC4(C)C3CCC12C)C(C)C (stereo not drawn) [beta-SITOSTEROL] | inactive: 0.969
40 | COc1ccc([Si](C)(C)[C@@H]2[C@@H](CCOC(=O)NCCCCCC(=O)NO)O[C@@]3(C(=O)N(Cc4ccccc4)c4ccc(NC(=O)[C@@H](C)OC(=O)NCCCCCC(=O)NO)cc43)[C@H]2C)cc1 | inactive: 1
41 | C[C@H]1CN([C@@H](C)CO)S(=O)(=O)c2ccc(-c3ccc(F)cc3)cc2O[C@@H]1CN(C)C(=O)C1CCOCC1 | inactive: 0.972
42 | C[C@@H]1CN([C@H](C)CO)C(=O)c2cc(NC(=O)Nc3ccccc3)ccc2O[C@@H]1CN(C)C(=O)Nc1cccc2ccccc12 | inactive: 1.02

Row | SMILES | relative growth
43 | C[C@H](NC(=O)N(C)C[C@H]1OCc2ccccc2-c2c(n(C)c3ccccc23)C(=O)N([C@@H](C)CO)C[C@@H]1C)c1ccccc1 | inactive: 0.996
44 | C[C@@H]1CCCCO[C@@H](CN(C)C(=O)c2ccccc2)[C@@H](C)CN([C@@H](C)CO)C(=O)c2cc(NC(=O)c3ccccc3)ccc2O1 | inactive: 0.999
45 | CCS(=O)(=O)N[C@@H]1C=C[C@H](CC(=O)NCc2ccccn2)O[C@@H]1CO | inactive: 0.999
46 | CC12CC(OC1=O)C1(C)CCC3(C)C(=CCC4C5(C)CCC(O)C(C)(C)C5CCC43C)C1C2 (stereo unspecified) | inactive: 1.03
47 | C[C@@H]1CN([C@H](C)CO)C(=O)c2cc(NS(=O)(=O)c3ccccc3)ccc2O[C@H]1CN(C)S(=O)(=O)c1ccccc1 | inactive: 1.03
48 | C[C@H](CO)N1C[C@H](C)[C@@H](CN(C)S(=O)(=O)c2ccc(F)cc2)Oc2ccc(NS(=O)(=O)c3ccccc3)cc2C1=O | inactive: 0.937
49 | Cc1noc(C)c1NC(=O)N(C)C[C@@H]1Oc2c(NC(=O)c3ccc(-c4nccs4)cc3)cccc2C(=O)N([C@H](C)CO)C[C@H]1C | inactive: 1.02
50 | COc1ccc(NC(=O)N(C)C[C@H]2Oc3ncc(C#C[C@H](C)O)cc3C(=O)N([C@H](C)CO)C[C@H]2C)cc1 | inactive: 1.01
51 | C[C@@H]1CN([C@@H](C)CO)C(=O)c2cc(NC(=O)Cc3cn(C)c4ccccc34)ccc2O[C@H]1CN(C)Cc1ccc(C(=O)Nc2ccccc2N)cc1 | inactive: 0.94
52 | Cc1ccc(S(=O)(=O)N(C)C[C@H]2Oc3ccc(NS(C)(=O)=O)cc3C(=O)N([C@H](C)CO)C[C@H]2C)cc1 | inactive: 1.01
53 | Cc1noc(C)c1NC(=O)N(C)C[C@@H]1OCCCC[C@@H](C)Oc2ccc(NC(=O)Nc3ccccc3)cc2C(=O)N([C@@H](C)CO)C[C@@H]1C | inactive: 0.975
54 | CCOC(=O)[C@H]1C/C=C/C[C@H](C(=O)OCC)C(=O)O[C@H]2[C@@H](OC)O[C@H](CO)[C@@H](OC(=O)c3c(OC)cccc3OC)[C@@H]2OC1=O | inactive: 1.01
55 | C[C@H]1CN([C@@H](C)CO)C(=O)Cc2cc(NC(=O)Nc3ccccc3)ccc2O[C@H]1CN(C)Cc1ccc(C(=O)Nc2ccccc2N)cc1 | inactive: 0.978
56 | C[C@H](CO)N1C[C@H](C)[C@H](CN(C)Cc2ccc(-c3ccccc3)cc2)Oc2ccc(NC(=O)CCCCCC(=O)Nc3ccccc3N)cc2CC1=O | inactive: 1.03
57 | Cc1[nH]c(=O)[nH]c(=O)c1S(=O)(=O)N1CCOCC1 | inactive: 0.954
58 | CC(C)CN1C(=O)[C@@]2(Cc3ccccc31)c1ccccc1C(=O)N(Cc1ccccc1)[C@H]2c1ccc(CO)cc1 | inactive: 1.01
59 | COc1ccc(NC(=O)Nc2ccc3c(c2)C(=O)N([C@@H](C)CO)C[C@H](C)[C@H](CN(C)Cc2ccccc2)OCCCC[C@@H](C)O3)cc1 | inactive: 0.988
60 | Cc1noc(C)c1S(=O)(=O)Nc1ccc2c(c1)CC(=O)N([C@H](C)CO)C[C@H](C)[C@H](CN(C)C(=O)Nc1ccc3c(c1)OCO3)O2 | inactive: 0.867
61 | Cc1ccc(S(=O)(=O)Nc2ccc3c(c2)C(=O)N([C@@H](C)CO)C[C@H](C)[C@@H](CN(C)Cc2ccc(Cl)c(Cl)c2)O3)cc1 | inactive: 1.01
